Four substances from paper PMC5983873 can be followed below.

Amino acid sequences for entries named in this document (tags omitted).
UniProt P12538: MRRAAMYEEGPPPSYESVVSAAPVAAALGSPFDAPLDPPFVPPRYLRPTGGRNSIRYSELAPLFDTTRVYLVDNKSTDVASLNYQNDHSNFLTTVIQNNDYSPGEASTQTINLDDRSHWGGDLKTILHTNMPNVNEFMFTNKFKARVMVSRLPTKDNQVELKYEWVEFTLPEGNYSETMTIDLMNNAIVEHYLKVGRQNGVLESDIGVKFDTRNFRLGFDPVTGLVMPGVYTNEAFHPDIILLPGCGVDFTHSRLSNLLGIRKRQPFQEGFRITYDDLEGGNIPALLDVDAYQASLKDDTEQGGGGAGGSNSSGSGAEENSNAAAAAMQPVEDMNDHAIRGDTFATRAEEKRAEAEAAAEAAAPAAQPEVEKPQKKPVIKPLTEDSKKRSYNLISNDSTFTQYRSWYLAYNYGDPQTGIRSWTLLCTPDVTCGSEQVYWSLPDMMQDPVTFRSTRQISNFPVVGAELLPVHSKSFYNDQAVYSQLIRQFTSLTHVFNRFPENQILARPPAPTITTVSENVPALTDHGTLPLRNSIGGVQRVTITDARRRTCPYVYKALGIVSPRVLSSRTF
UniProt Q07866: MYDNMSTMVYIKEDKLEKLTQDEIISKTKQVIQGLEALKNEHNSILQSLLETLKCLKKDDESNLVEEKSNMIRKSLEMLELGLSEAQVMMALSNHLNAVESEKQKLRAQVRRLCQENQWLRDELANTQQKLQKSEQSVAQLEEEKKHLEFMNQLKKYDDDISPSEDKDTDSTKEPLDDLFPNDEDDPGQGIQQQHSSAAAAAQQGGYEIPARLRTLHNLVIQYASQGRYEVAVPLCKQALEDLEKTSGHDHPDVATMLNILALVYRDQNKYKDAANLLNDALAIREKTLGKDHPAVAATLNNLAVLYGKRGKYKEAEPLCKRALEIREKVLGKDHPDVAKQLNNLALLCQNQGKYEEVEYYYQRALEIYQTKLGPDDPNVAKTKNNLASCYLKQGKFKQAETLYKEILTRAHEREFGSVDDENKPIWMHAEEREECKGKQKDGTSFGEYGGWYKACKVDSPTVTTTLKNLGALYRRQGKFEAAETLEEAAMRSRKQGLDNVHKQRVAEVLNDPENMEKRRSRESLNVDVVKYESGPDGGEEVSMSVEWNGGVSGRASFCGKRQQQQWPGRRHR
UniProt Q9H0B6: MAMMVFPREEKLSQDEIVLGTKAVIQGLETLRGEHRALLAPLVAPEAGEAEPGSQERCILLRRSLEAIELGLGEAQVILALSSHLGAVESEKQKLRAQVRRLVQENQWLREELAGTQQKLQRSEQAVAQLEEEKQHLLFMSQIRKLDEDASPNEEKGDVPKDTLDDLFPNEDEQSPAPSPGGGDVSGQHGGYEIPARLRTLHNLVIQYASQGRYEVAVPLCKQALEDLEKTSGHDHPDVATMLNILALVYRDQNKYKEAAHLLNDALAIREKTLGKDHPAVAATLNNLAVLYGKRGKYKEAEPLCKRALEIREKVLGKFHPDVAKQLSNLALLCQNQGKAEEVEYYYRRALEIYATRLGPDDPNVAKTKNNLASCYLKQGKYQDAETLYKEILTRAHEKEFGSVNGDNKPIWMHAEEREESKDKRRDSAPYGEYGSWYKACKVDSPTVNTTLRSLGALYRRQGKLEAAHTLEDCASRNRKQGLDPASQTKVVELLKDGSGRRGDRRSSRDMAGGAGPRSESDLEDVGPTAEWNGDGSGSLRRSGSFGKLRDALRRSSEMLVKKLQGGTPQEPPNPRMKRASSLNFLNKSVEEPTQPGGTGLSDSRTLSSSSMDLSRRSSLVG
UniProt P33176: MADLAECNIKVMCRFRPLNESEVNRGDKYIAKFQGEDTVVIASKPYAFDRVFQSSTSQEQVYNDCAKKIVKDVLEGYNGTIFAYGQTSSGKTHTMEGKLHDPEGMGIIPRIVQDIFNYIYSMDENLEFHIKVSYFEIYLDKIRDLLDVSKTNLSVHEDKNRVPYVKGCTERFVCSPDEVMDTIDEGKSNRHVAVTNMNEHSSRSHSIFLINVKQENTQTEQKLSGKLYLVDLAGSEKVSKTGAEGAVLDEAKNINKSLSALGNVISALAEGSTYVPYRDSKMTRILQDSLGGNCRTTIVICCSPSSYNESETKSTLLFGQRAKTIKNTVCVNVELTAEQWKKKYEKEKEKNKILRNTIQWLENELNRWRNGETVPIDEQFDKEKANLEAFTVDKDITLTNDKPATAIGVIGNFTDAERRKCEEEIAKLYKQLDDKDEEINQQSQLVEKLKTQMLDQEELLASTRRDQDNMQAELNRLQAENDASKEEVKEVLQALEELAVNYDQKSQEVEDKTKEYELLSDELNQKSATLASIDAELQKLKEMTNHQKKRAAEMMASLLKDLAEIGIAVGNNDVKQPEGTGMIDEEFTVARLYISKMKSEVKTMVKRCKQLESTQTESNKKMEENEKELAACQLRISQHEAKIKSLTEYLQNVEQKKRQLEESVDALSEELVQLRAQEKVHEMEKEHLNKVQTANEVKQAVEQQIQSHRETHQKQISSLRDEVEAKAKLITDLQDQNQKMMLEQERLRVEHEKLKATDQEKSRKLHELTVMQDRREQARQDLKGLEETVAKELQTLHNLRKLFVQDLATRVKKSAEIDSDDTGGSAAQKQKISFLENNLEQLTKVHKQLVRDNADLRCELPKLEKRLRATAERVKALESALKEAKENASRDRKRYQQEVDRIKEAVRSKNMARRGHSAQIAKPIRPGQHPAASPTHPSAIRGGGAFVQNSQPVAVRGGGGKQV
UniProt Q12840: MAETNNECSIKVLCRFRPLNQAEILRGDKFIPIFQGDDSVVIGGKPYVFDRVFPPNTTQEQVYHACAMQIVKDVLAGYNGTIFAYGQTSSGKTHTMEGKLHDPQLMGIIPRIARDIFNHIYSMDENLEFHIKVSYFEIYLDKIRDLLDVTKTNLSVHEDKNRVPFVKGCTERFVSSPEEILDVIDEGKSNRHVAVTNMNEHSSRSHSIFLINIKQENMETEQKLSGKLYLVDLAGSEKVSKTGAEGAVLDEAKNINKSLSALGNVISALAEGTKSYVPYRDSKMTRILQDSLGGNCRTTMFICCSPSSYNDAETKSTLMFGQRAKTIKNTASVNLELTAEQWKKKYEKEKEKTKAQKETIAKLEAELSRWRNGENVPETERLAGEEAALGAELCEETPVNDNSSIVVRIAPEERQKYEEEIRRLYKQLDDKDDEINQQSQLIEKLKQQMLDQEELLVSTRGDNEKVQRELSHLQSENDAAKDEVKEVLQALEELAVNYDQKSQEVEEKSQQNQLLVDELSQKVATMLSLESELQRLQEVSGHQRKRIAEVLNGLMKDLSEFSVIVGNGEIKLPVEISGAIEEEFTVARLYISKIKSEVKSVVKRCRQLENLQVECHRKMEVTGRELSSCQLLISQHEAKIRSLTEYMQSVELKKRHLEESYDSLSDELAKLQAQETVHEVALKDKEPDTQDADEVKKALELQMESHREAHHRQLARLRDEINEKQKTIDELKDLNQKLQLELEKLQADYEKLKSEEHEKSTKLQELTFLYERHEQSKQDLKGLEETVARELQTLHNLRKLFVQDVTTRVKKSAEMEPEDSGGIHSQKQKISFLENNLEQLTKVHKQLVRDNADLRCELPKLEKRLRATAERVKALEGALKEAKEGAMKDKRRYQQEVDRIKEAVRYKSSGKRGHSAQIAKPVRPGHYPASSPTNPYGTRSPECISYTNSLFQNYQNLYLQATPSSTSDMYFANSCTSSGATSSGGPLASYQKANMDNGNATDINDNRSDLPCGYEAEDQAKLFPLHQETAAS
UniProt O60282: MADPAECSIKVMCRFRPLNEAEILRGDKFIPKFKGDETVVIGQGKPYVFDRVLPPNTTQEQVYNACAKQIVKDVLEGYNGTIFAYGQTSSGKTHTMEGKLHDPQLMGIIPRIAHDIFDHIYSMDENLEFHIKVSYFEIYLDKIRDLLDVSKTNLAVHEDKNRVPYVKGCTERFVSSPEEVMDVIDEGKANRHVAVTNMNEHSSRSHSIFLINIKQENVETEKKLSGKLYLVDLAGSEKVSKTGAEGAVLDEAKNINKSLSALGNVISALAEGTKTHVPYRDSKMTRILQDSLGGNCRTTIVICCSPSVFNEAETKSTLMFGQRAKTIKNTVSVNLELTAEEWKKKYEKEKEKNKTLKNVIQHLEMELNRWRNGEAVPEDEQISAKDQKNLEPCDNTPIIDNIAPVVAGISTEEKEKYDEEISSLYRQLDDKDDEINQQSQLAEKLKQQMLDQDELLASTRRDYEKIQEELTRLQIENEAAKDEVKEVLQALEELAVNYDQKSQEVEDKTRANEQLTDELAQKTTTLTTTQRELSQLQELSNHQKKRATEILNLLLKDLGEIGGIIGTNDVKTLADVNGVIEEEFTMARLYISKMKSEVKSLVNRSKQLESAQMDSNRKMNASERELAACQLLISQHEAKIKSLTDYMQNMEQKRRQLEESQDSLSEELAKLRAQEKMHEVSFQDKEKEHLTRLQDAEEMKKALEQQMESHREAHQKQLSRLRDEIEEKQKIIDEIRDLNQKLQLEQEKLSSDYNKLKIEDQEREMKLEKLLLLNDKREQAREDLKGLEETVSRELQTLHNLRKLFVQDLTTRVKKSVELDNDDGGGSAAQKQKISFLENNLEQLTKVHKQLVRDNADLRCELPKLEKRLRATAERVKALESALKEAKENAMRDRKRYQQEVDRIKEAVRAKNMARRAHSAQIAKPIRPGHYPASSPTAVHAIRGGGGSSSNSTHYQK

These are yes or no findings as the source states them, for the method shown. Binding seen in cells or lysates may run through a third protein. Some results given as binding are weak or reduced against the parent protein; the word gives no strength.

For experiment [1], the target named is myc-tagged penton base (human adenovirus 5 (Ad5)) (UniProt P12538). The experiment in a line: co-IP; myc-tagged penton base co-expressed with GFP, GFP-Kif5A, GFP-Kif5B or RFP-Kif5C in 293A cells for 24 h; anti-myc immunoprecipitation of lysates (RIPA buffer with 1% NP40); immunoblot. (In general: In western blotting, separated proteins are transferred to a membrane and probed.)

Experiment [2] concerns the target GFP-tagged full length KLC1 (UniProt Q07866). The experiment in a line: co-IP; GFP-Kif5B, GFP-KLC1 or GFP-KLC2 co-expressed with penton base-myc in 293A cells for 24 h; anti-GFP immunoprecipitation of lysates; immunoblot.
For experiment [3], the target named is GFP-tagged full length KLC2 (UniProt Q9H0B6). The experiment is described as above.
Experiment [4] concerns the target GFP-tagged full length Kif5B (UniProt P33176). Described as above.

With “GFP-tagged full length Kif5A (from UniProt Q12840 1-1032)”, the binding entry in experiment [1] is recorded as “binds”.
The same measure, in the same setting: to “GFP-tagged full length Kif5B (from UniProt P33176 1-963)” belongs “binds”; to “RFP-tagged Kif5C (from UniProt O60282 1-957)”, “binds”.
Turning to “myc-tagged penton base (from UniProt P12538 1-571)”, the binding entry in experiment [2] was “no binding”; in experiment [3] it was “no binding”; in experiment [4] it was “binds”.
